Reference: PubChem BioAssay AID1240 (Sanford-Burnham Center for Chemical Genomics, 2008)
About 800 (1.6%) of roughly 50,000 compounds showed an effect of 50% or more. The list shows a part of the results.

Each compound was assayed against Bcl-2-like protein 10 (Homo sapiens) (UniProt Q9HD36) (assay: TR3 peptide-Bcl-B binding displacers, biochemical primary FP assay, phenotype converters (AID 1240;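 note: 0% = Bcl-B with tracer peptide and DMSO and 100% = tracer peptide lacking Bcl-B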)). Details: GST-Bcl-B / FITC-TR3 peptide fluorescence polarization; stronger effect = higher value; compound at 3.75 mg/L.
Sequence of UniProt Q9HD36 (Q9HD36 whole entry, looked up): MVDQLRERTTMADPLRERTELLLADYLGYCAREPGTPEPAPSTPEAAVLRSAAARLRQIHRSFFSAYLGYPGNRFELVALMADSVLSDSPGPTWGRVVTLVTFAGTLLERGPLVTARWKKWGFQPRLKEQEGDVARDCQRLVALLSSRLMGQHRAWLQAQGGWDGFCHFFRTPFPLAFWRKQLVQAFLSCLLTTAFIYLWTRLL

In order of falling displacement:
1. COc1cc([N+](=O)[O-])ccc1-c1ccc(/C=C2/C(=N)N3N=C(C(C)C)SC3=NC2=O)o1  77%
2. O=C(Nc1ccc(Cl)c(Cl)c1)N1CCN(C(c2ccccc2)c2ccccc2)CC1  22.9%
3. COc1ccccc1/C=C/C(=O)c1c(-c2ccccc2Cl)c2cc(Br)ccc2[nH]c1=O  20.5%
4. COc1ccc(N/C=C/C(=O)c2ccc(Cl)cc2)c(OC)c1  18.3%
5. COc1cc(-c2nc(N)c3c(=O)oc4ccccc4c3n2)cc(OC)c1OC  14.2%
6. Cc1cccc(C(=O)Oc2ccc(/C=C3/SC(=S)N(c4ccccc4)C3=O)cc2)c1  13.6%
7. O=C(Nc1ccc(F)cc1)c1ccco1  12.9%
8. FC(F)(F)Oc1ccc(N=Cc2ccc(Br)s2)cc1  12.9%
9. CC(=O)C12c3ccccc3C(c3ccccc31)C1C(=O)N(c3ccc(F)cc3)C(=O)C12 (stereo not drawn)  12.6%
10. CC(=O)Oc1ccc(-c2cccc(C(=O)NC(CO)C(O)c3ccc([N+](=O)[O-])cc3)c2)cc1 (stereo not drawn)  10.4%
11. O=C(/C=C/c1ccc(Cl)cc1)Nc1ccc(-c2nc3ncccc3o2)cc1  9.4%
12. O=C(Nc1cccc(F)c1)C1CC(=O)N(c2ccccc2)C1 (stereo not drawn)  7.9%
13. Cc1oc(C(=O)O)cc1COc1ccc2oc3ccccc3c2c1  7.1%
14. O=C(O)Cc1csc(-c2ccc(Cl)cc2)n1  6.5%
15. COc1ccccc1NC(=O)C(=O)N/N=C/c1ccc(C(=O)O)cc1  6.3%
16. O=C(NC(Cc1c[nH]c2ccccc12)C(=O)OCC(=O)c1cccc([N+](=O)[O-])c1)Oc1ccccc1 (stereo not drawn)  5%
17. CCOc1ccc(-c2cc(C(=O)Nc3cccc([N+](=O)[O-])c3)c3ccccc3n2)cc1  4.4%
18. CCOC(=O)C1=C(C)NC(C)=C(C(=O)OC)C1c1ccc([N+](=O)[O-])cc1 (stereo not drawn)  4.3%
19. O=c1c(/C=C(\O)c2ccc(F)cc2)nc2ccccc2n1-c1ccccc1  4%
20. CCOC(=O)C1=C(C)N=c2s/c(=C\c3cccs3)c(=O)n2C1c1ccc(N(C)C)cc1 (stereo not drawn)  3.2%
21. CCOC(=O)c1c(NC(=O)c2ccccc2F)sc2c1CCC(C)C2 (stereo not drawn)  3.1%
22. Cc1cccn2c(NC(=O)c3ccc(Br)cc3)c(-c3ccccc3)nc12  3%
23. c1ccc(-c2cc(-c3cc(-c4ccccc4)on3)no2)cc1  2.6%
24. CC(OCc1ccccc1)C(NC(=O)OC(C)(C)C)C(=O)NCC1CCCO1 (stereo not drawn)  2.3%
25. COC(=O)c1ccccc1NC(=O)c1ccccc1NC(=O)c1ccc(OC)cc1  2.1%
26. COc1ccc(CCNC(=O)c2cc(Cl)ccc2Cl)cc1OC  1.9%
27. O=C(N/N=C/c1ccc(Br)cc1)C12CC3CCC(CC(C3)C1)C2  1.7%
28. O=C(Nc1ccccc1C#Cc1ccccc1)c1cccnc1  1.4%
29. Cc1[nH]n(-c2ccccc2)c(=O)c1C(c1c(Cl)cccc1Cl)c1c(C)[nH]n(-c2ccccc2)c1=O  1.1%
30. O=C(c1cc2nc(-c3ccc([N+](=O)[O-])cc3)cc(C(F)(F)F)n2n1)N1CCCC1  0.3%
31. O=C1NC(=O)N(c2cccc(Br)c2)C(=O)/C1=C/c1cccc([N+](=O)[O-])c1  0.3%
32. Cc1ccc(N(CC(=O)Nc2cccc3ccccc23)S(=O)(=O)c2ccc(F)cc2)cc1  0.1%
33. CC(O)c1cccc(NC(=O)c2nn3c(c2Cl)NC(c2ccco2)CC3C(F)(F)F)c1 (stereo not drawn)  -0.1%
34. c1ccc(Nc2nc(-c3ccccc3)[n+](-c3ccccc3)s2)cc1  -0.4%
35. CC(=O)N1c2ccccc2Sc2ccccc21  -1.9%
36. CCOc1cccc(NC(=O)Nc2cccc(C(F)(F)F)c2)c1  -2%
37. CCOc1ccc(/C=N/Nc2ccccn2)cc1  -2.3%
38. CCOC(=O)c1cccc(P(=O)(C(C)C)C(C)C)c1  -2.4%
39. COc1cc(Br)cc(/C=N/c2ncn[nH]2)c1O  -2.8%
40. CC(CCc1ccccc1)NCC#N (stereo not drawn)  -3.3%
41. CC(C)(C)NCC(=O)Nc1ccc(S(N)(=O)=O)cc1  -3.9%
42. CCc1nnc(NC(=O)C(CC)CC)s1  -4.3%
43. CCC(O)c1ccc(OCc2ccccc2)c(OC)c1 (stereo not drawn)  -4.4%
44. COc1ccc(NC(=O)NCCc2ccc(Cl)cc2Cl)cc1OC  -4.4%
45. C=CCOc1ccc(-c2nc3sc4c(c3c(=O)[nH]2)CCCC4)cc1OC  -4.9%
46. O=C1NN(c2ccc(Cl)cc2)C(=O)/C1=C\c1cc(Cl)cc(Br)c1O  -5.3%
47. COc1ccc(-c2ccc(-c3nnc(-c4cccc(C)c4)o3)cc2)cc1  -5.4%
48. Cc1nc2ccccc2c(=O)n1/N=C/c1ccccc1F  -7%
49. CC(C)CCNC(=O)c1ccc(Cl)cc1Cl  -7.2%
50. CC1=CC(C)(C)N(C(=O)c2ccc(F)cc2)c2ccc(OC(=O)c3ccc([N+](=O)[O-])cc3)cc21  -7.2%
51. O=C(c1cccc(S(=O)(=O)N2CCOCC2)c1)N1CCOCC1  -7.2%
52. COc1ccccc1NC(=O)CC1SC(=Nc2ccccc2)N(c2ccccc2)C1=O (stereo not drawn)  -7.3%
53. Clc1ccc(-c2nc(Cc3ccccc3Cl)no2)cc1  -7.5%
54. COc1ccc(NC(=O)CC2Nc3cc(C)c(C)cc3NC2=O)cc1 (stereo not drawn)  -8%
55. Cc1cccc(NC(=O)COc2ccc(C(C)C)cc2)c1C  -8.6%
56. COc1cccc(/C=N/NC(=O)c2cc(C)[nH]n2)c1OC  -9%
57. O=C(c1ccccc1F)N1CCN(Cc2ccc(Cl)cc2)CC1  -9.2%
58. Nc1nc(-c2ccccc2)cn1/N=C/c1ccc(Cl)cc1Cl  -9.6%
59. Clc1ccc(N2CCN(N=Cc3cccc(Br)c3)CC2)cc1  -11.5%
60. CCN(CC)S(=O)(=O)c1cc(C(N)=O)ccc1Cl  -12.6%
61. O=C(Nc1ccc(-c2nc3cc(Cl)ccc3o2)cc1)c1cccs1  -12.8%
62. CCC(=O)N1c2ccccc2NC2=C(C(=O)CC(C)(C)C2)C1c1ccc(C#N)cc1 (stereo not drawn)  -13.5%
63. Cn1c(=O)c2c(ncn2CC(=O)NNC(=S)Nc2ccccc2)n(C)c1=O  -15.2%
64. Cc1cc(-c2ccc(/C=c3\sc4nc5c(C)cc(C)cc5n4c3=O)o2)c(C)c([N+](=O)[O-])c1  -17.2%
65. C/C(=N\NC(=O)c1ccccn1)c1ccc(F)cc1  -18.6%
66. CCc1cc2c(Nc3ccc(Br)cc3)ncnc2s1  -24.8%
67. CN(C)c1ccc(/C=C2\C(=O)NC(=O)N(c3ccc(Cl)cc3)C2=O)o1  -32.5%
68. CC1=NN(c2ccc(C(=O)O)cc2)C(=O)/C1=C\c1ccc(O)cc1  -50.5%
